# Screen size: about 2,000 compounds; about 110 (5.5%) showed an effect of 50% or more. The list shows a part of the results.
# Target: Genome polyprotein (dengue virus type 2) (UniProt P29990)
# [1] = Thailand/16681/1984, Concentration 25.0 uM, Number of replicates 1.0
smiles,measurement,setting,value
COc1cc2c(cc1OC)C(=O)[C@@H](CC1CCN(C(=O)C3CCN(c4ccc(C=O)cc4)CC3)CC1)C2,inhibition,[1],13.2%
CC(C)(C)OC(=O)Cn1ccnc(N2CC[C@@H](CO)C2)c1=O,inhibition,"Thailand/16681/1984, Concentration 49.5 uM, Number of replicates 2.0, Standard deviation 1.925386388328258 %",8.46%
same,inhibition,"Thailand/16681/1984, Concentration 99.01 uM, Number of replicates 2.0, Standard deviation 1.9414052253354905 %",18.8%
same,inhibition,"Thailand/16681/1984, Concentration 198.0 uM, Number of replicates 2.0, Standard deviation 1.9983621392383246 %",33.8%
CC(=O)N[C@@H](Cc1ccc(CN)cc1)C(=O)Nc1cccc2c(CO)cc(C)nc12,inhibition,"Thailand/16681/1984, Concentration 49.95 uM, Number of replicates 2.0, Standard deviation 0.08390662036506401 %",24.9%
same,inhibition,"Thailand/16681/1984, Concentration 99.9 uM, Number of replicates 2.0, Standard deviation 0.3339864632910001 %",96.3%
Cn1cccc(C(=O)Nc2cc(Cl)cc(C(=O)NC(C)(C)CO)c2)c1=O,inhibition,"Thailand/16681/1984, Concentration 49.5 uM, Number of replicates 2.0, Standard deviation 1.3525953966857744 %",-1.24%
same,inhibition,"Thailand/16681/1984, Concentration 99.01 uM, Number of replicates 2.0, Standard deviation 1.139373794646161 %",-1.54%
same,inhibition,"Thailand/16681/1984, Concentration 198.0 uM, Number of replicates 2.0, Standard deviation 1.825064413405171 %",-3.63%
Cc1nc([C@H]2CC[C@H](NC(=O)c3ccc(O)c(NC(=O)c4ccncc4F)c3C)CC2)n[nH]1,inhibition,"Thailand/16681/1984, Concentration 49.5 uM, Number of replicates 2.0, Standard deviation 0.1289894183432269 %",-1.73%
same,inhibition,"Thailand/16681/1984, Concentration 99.01 uM, Number of replicates 2.0, Standard deviation 0.7020941721994499 %",-1.19%
same,inhibition,"Thailand/16681/1984, Concentration 198.0 uM, Number of replicates 2.0, Standard deviation 0.446292409899402 %",-0.612%
O=C(c1ccn([C@H]2CCCNC2)n1)N1CCC[C@H](c2ccccc2)C1,inhibition,"Thailand/16681/1984, Concentration 49.5 uM, Number of replicates 2.0, Standard deviation 9.16460427853716 %",2.31%
same,inhibition,"Thailand/16681/1984, Concentration 99.01 uM, Number of replicates 2.0, Standard deviation 15.15135118363098 %",7.34%
same,inhibition,"Thailand/16681/1984, Concentration 198.0 uM, Number of replicates 2.0, Standard deviation 8.96789300897869 %",7.08%
O=Cc1ccc(N2CCC(C(=O)Nc3cc(Br)cc(C(F)(F)F)c3)CC2)cc1,inhibition,[1],12.4%
Cc1cc(CO)c2cccc(CC(=O)N[C@@H](CCC(N)=O)C(=O)O)c2n1,inhibition,"Thailand/16681/1984, Concentration 49.95 uM, Number of replicates 2.0, Standard deviation 0.1031646955614498 %",95.6%
same,inhibition,"Thailand/16681/1984, Concentration 99.9 uM, Number of replicates 2.0, Standard deviation 0.012461980167701147 %",98.7%
Cc1cc(CO)c2cccc(Cc3ccccc3NC(=O)CN3CCOCC3)c2n1,inhibition,"Thailand/16681/1984, Concentration 49.95 uM, Number of replicates 2.0, Standard deviation 1.5612707024702146 %",-2%
same,inhibition,"Thailand/16681/1984, Concentration 99.9 uM, Number of replicates 2.0, Standard deviation 0.4618038620708361 %",3.39%
CC(=O)N[C@@H](CCCN)C(=O)Nc1ccccc1Cc1cccc2c(CO)cc(C)nc12,inhibition,"Thailand/16681/1984, Concentration 49.95 uM, Number of replicates 2.0, Standard deviation 1.2344771467866291 %",-4.07%
same,inhibition,"Thailand/16681/1984, Concentration 99.9 uM, Number of replicates 2.0, Standard deviation 0.6037374205287288 %",4.36%
c1cnc(N2CCOCC2)c(CN2CC[C@H](c3c[nH]c4ccccc34)C2)c1,inhibition,"Thailand/16681/1984, Concentration 49.5 uM, Number of replicates 2.0, Standard deviation 0.5553889740924645 %",0.48%
same,inhibition,"Thailand/16681/1984, Concentration 99.01 uM, Number of replicates 2.0, Standard deviation 1.234197713181002 %",2.1%
same,inhibition,"Thailand/16681/1984, Concentration 198.0 uM, Number of replicates 2.0, Standard deviation 1.4786453041530332 %",4.2%
c1cncc(C2CCN(Cc3c[nH]c4ccccc34)CC2)c1,inhibition,"Thailand/16681/1984, Concentration 49.5 uM, Number of replicates 2.0, Standard deviation 0.9186485573584864 %",-4.68%
same,inhibition,"Thailand/16681/1984, Concentration 99.01 uM, Number of replicates 2.0, Standard deviation 0.34840877767663997 %",-2.48%
same,inhibition,"Thailand/16681/1984, Concentration 198.0 uM, Number of replicates 2.0, Standard deviation 1.0669618842754731 %",2.52%
C[C@@H](c1ccccc1)N(C(=O)C1CCN(c2ccc(C=O)cc2)CC1)[C@@H](C)c1ccccc1,inhibition,[1],15.2%
c1cnc(C2CCN(Cc3c[nH]c4ccccc34)CC2)nc1,inhibition,"Thailand/16681/1984, Concentration 49.5 uM, Number of replicates 2.0, Standard deviation 0.0814293971969877 %",-4.94%
same,inhibition,"Thailand/16681/1984, Concentration 99.01 uM, Number of replicates 2.0, Standard deviation 1.1974150626674833 %",-3.24%
same,inhibition,"Thailand/16681/1984, Concentration 198.0 uM, Number of replicates 2.0, Standard deviation 1.6263665310687148 %",-1.42%
O=C(NCCc1c[nH]c2cccnc12)[C@@]1(c2ccc(F)cc2)CCCNC1,inhibition,"Thailand/16681/1984, Concentration 49.5 uM, Number of replicates 2.0, Standard deviation 1.1136820873182842 %",1.59%
same,inhibition,"Thailand/16681/1984, Concentration 99.01 uM, Number of replicates 2.0, Standard deviation 0.49533104785852466 %",0.827%
same,inhibition,"Thailand/16681/1984, Concentration 198.0 uM, Number of replicates 2.0, Standard deviation 0.202684658104223 %",1.03%
O=Cc1ccc(N2CCC(C(=O)NCc3ccc(Br)cc3F)CC2)cc1,inhibition,[1],13.2%
CC(C)Sc1ccccc1NC(=O)C1CCN(c2ccc(C=O)cc2)CC1,inhibition,[1],12.6%
O=Cc1ccc(N2CCC(C(=O)NCc3ccc(-c4ccccc4)cc3)CC2)cc1,inhibition,[1],1.38%
O=Cc1ccc(N2CCC(C(=O)N3CCC(Oc4ncccn4)CC3)CC2)cc1,inhibition,[1],13.4%
c1ccc2c(CN3CCC(c4c[nH]c5ncccc45)CC3)c[nH]c2c1,inhibition,"Thailand/16681/1984, Concentration 49.5 uM, Number of replicates 2.0, Standard deviation 0.3722732505341754 %",1.81%
same,inhibition,"Thailand/16681/1984, Concentration 99.01 uM, Number of replicates 2.0, Standard deviation 0.4261548774885636 %",5.47%
same,inhibition,"Thailand/16681/1984, Concentration 198.0 uM, Number of replicates 2.0, Standard deviation 0.5067055971877963 %",12%
CCn1ccnc(N[C@@H](Cc2c[nH]c3ccccc23)C(=O)OC)c1=O,inhibition,"Thailand/16681/1984, Concentration 49.5 uM, Number of replicates 2.0, Standard deviation 0.10351011005842083 %",0.218%
same,inhibition,"Thailand/16681/1984, Concentration 99.01 uM, Number of replicates 2.0, Standard deviation 1.0746625349668986 %",2.15%
same,inhibition,"Thailand/16681/1984, Concentration 198.0 uM, Number of replicates 2.0, Standard deviation 0.583666754093053 %",4.84%
Cc1cc(C)c(CNC(=O)C2CCN(c3ccc(C=O)cc3)CC2)c(=O)[nH]1,inhibition,[1],13.3%
O=Cc1ccc(N2CCC(C(=O)NCc3ccc([N+](=O)[O-])cc3)CC2)cc1,inhibition,[1],8.81%
Cc1nc([C@H]2CCCNC2)[nH]c1C(=O)N1CCO[C@H](c2ccccc2)C1,inhibition,"Thailand/16681/1984, Concentration 49.5 uM, Number of replicates 2.0, Standard deviation 0.9846181533468901 %",-5.12%
same,inhibition,"Thailand/16681/1984, Concentration 99.01 uM, Number of replicates 2.0, Standard deviation 3.3586182103297118 %",-3.87%
same,inhibition,"Thailand/16681/1984, Concentration 198.0 uM, Number of replicates 2.0, Standard deviation 1.7197146566295223 %",-2.98%
